These are yes or no findings as the source states them, for the method shown. In cells and extracts the contact can be indirect. Some results given as binding are weak or reduced against the parent protein; the word gives no strength. For some assays here: Tags and fused reporters may be left off the sequences shown. Blank lines part the entries; values can stand above or below the substance they belong to.
What was measured:
[1] = target: DOCK9, endogenous in HUVEC (human (endogenous in HUVEC)) (UniProt Q9BZ29); experiment: co-IP; as the HUVEC co-IP with VEGF (25 ng/ml), but after Rac1 knockdown (Rac1 siRNA ol1)
[2] = target: DOCK9, endogenous in HUVEC (human (endogenous in HUVEC)) (UniProt Q9BZ29); experiment: co-IP; endogenous proteins in HUVEC, serum starved 5 h and stimulated with VEGF (25 ng/ml), NP40 lysis buffer (20 mM Tris-HCl pH 7.5, 150 mM NaCl, 1% NP40), IP with anti-DOCK9 antibody, immunoblot of DOCK4
Cdc42 GST fusion protein = Cdc42 GST fusion protein (UniProt P60953); experiment: pull-down; nucleotide-free pull-down: Rac1, RhoA and Cdc42 GST fusion proteins on beads with cell lysate in the presence of 15 mM EDTA to chelate magnesium and stabilize the nucleotide-free GTPase; immunoblot of DOCK4; only the target purified
RhoA GST fusion protein = RhoA GST fusion protein (UniProt P61586); experiment: as above
GST–ELMO1 = GST–ELMO1 (UniProt Q92556); experiment: pull-down; GST–SH3(DOCK4) or GST–ELMO1 on glutathione beads incubated with cell lysate (Rho lysis buffer) at 4 °C for 45 min, washed with TBS with 10 mM MgCl2; immunoblot of DOCK9 or DOCK4; for GST–ELMO also after siRNA knockdown of DOCK4 or DOCK9; only the target purified
GST–SH3(DOCK4) (human) = target: T1, GST–SH3(DOCK4) (human) (UniProt Q8N1I0); experiment: as above
T1 sequence: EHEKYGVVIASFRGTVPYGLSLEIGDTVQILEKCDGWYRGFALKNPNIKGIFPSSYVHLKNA

By UniProt entry, the sequences of proteins in these tests, tags left out.
UniProt Q9BZ29: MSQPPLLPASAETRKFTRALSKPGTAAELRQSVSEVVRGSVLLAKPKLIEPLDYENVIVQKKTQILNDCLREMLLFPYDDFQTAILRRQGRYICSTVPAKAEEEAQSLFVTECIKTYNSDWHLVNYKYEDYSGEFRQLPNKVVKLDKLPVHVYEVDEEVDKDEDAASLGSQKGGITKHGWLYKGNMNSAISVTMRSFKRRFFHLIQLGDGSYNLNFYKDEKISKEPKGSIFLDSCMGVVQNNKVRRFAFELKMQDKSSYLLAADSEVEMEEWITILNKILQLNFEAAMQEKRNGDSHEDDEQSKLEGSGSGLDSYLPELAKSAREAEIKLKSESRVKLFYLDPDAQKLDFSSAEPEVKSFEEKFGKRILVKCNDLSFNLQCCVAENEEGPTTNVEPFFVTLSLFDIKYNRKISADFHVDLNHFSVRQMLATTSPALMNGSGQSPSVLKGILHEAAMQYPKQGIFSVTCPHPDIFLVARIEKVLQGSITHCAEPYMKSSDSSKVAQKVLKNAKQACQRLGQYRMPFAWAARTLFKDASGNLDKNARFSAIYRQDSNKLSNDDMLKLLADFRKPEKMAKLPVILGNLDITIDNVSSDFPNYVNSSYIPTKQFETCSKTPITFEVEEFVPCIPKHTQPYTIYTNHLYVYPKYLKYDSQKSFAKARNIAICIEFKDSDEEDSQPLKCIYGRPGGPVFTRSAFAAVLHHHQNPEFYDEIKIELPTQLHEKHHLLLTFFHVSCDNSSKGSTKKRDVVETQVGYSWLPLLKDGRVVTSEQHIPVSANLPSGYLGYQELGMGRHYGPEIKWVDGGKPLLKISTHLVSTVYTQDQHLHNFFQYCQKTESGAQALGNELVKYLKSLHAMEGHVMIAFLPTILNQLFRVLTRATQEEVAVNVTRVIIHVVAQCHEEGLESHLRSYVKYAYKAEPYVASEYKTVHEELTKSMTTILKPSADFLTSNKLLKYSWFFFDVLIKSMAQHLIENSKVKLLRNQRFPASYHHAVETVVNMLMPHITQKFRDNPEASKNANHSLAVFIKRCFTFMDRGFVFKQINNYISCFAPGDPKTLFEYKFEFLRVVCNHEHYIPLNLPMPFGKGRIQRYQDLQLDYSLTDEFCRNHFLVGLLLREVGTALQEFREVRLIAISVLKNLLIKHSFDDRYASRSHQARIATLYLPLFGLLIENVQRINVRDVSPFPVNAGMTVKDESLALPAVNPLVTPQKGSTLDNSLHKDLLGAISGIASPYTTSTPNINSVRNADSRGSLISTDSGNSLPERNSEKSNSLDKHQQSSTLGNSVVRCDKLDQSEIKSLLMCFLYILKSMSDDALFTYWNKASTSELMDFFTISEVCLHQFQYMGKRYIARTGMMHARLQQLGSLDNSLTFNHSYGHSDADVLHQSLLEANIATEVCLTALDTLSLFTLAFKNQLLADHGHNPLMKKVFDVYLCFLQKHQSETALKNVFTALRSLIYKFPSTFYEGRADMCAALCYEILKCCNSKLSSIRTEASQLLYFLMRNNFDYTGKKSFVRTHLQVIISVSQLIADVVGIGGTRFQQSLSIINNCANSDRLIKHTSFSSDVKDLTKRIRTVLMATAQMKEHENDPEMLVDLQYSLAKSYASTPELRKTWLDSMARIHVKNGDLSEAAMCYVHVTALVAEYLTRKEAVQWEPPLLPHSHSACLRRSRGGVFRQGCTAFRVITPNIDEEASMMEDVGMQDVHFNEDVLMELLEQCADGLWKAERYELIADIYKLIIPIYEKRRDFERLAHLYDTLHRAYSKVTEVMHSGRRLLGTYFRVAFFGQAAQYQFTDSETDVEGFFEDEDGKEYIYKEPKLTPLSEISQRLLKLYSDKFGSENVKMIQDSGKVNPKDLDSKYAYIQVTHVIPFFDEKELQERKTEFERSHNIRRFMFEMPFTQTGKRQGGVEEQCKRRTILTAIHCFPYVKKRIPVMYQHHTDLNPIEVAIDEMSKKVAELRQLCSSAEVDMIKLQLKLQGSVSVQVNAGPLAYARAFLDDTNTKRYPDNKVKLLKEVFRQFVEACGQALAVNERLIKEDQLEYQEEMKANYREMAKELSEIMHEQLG
UniProt P60953: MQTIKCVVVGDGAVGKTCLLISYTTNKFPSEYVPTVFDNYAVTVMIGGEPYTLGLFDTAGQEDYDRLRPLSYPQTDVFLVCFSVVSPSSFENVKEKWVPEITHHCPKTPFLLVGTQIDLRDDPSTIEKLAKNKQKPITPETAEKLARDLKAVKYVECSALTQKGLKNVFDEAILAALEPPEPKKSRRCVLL
UniProt P61586: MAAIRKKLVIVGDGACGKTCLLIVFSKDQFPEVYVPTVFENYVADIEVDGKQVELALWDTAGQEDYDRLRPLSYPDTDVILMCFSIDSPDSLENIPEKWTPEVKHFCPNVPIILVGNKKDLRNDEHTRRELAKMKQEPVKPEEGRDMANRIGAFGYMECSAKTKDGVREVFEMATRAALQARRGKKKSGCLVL
UniProt Q92556: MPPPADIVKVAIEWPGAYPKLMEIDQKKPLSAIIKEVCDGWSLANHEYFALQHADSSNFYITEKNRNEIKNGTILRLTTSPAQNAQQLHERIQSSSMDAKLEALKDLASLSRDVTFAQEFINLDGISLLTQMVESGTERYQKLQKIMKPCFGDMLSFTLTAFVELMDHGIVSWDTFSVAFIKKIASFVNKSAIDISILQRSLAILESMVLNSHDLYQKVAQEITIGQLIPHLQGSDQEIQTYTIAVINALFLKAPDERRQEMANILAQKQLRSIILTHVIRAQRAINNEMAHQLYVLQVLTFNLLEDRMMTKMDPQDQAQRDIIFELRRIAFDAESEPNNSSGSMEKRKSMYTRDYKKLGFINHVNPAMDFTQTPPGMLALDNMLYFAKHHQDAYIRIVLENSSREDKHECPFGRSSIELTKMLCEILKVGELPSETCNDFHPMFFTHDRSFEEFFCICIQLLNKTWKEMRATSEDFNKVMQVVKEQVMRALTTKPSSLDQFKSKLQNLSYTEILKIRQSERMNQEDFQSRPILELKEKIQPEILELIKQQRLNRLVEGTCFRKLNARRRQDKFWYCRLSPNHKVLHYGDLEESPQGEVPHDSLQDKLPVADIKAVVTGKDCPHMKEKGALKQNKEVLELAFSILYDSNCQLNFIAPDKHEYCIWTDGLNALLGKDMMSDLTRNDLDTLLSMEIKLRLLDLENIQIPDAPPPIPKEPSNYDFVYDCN

[3] = target: DOCK9 in HEK293T lysate, precipitated with anti-DOCK9 antibody (human (endogenous in HEK293T)) (UniProt Q9BZ29); experiment: co-IP; HEK293T transfected with DOCK4 constructs, Rho lysis buffer (50 mM Tris-HCl pH 7.4, 100 mM NaCl, 10% glycerol, 1% NP40, 5 mM MgCl2), IP with anti-DOCK9 antibody and Protein G Sepharose at 4 °C, immunoblot of DOCK4

Substance: DOCK4 in the cell lysate used for GST pull-downs (from UniProt Q8N1I0 1-1966)
- binding (Cdc42 GST fusion protein): no binding
- binding (RhoA GST fusion protein): no binding
- binding (GST–ELMO1): binds

Substance: Flag-tagged DOCK4 wildtype (from UniProt Q8N1I0 1-1966)
- binding [3]: binds

Substance: GFP-tagged DOCK4 (from UniProt Q8N1I0 1-1966)
- binding [3]: binds

The next lines start with results.

- binding [2]: binds
Substance: DOCK4 (dedicator of cytokinesis 4), endogenous in HUVEC (from UniProt Q8N1I0 1-1966)
- binding [1]: no binding (condition: with knockdown of Rac1 (siRNA))

- binding (GST–SH3(DOCK4) (human)): binds
Substance: DOCK9 in the cell lysate used for GST pull-downs (from UniProt Q9BZ29 1-2069)

Reference: article PMC4507007
